In the supplement of paper PMC12067093, “Discovery and optimisation of a covalent ligand for TRIM25 and its application to targeted protein ubiquitination” (Chemical Science, 2025):
Targets with the largest changes are over-represented here; the source holds about 21,000 in all.

Compound: CC1Cc2ccccc2N1C(=O)C1CCCN(C1)C(=O)CCl (mixture of isomers) [TRIM25 ligand 11 (diastereomer mixture)]
Experiment: probe-labelled cysteine peptide fold change vs DMSO (competition) (log2 fold change); higher = less target engagement (more negative = stronger competition)
Settings: THP-1, incubation time: 4 h
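Further: competitive chemoproteomic profiling in live THP-1 cells with an iodoacetamide desthiobiotin (IA-DTB) probe, comparing probe-labelled peptide intensities in compound-treated cells against DMSO-treated controls.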

UniProt Q8IV63, sequence (Q8IV63 whole entry, looked up): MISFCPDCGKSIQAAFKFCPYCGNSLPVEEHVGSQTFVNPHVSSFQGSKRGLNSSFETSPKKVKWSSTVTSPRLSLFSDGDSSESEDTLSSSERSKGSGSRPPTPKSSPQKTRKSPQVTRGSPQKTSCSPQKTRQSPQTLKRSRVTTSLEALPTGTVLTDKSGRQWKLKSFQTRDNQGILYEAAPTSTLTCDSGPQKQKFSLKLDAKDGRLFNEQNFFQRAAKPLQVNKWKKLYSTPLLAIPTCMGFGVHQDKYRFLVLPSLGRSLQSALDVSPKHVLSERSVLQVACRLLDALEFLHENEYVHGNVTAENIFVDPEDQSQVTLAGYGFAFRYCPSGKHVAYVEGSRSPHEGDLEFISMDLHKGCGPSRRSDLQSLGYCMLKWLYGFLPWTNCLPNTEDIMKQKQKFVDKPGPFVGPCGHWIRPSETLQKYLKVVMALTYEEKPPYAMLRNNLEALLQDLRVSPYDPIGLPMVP
UniProt P49815, sequence (P49815 whole entry, looked up): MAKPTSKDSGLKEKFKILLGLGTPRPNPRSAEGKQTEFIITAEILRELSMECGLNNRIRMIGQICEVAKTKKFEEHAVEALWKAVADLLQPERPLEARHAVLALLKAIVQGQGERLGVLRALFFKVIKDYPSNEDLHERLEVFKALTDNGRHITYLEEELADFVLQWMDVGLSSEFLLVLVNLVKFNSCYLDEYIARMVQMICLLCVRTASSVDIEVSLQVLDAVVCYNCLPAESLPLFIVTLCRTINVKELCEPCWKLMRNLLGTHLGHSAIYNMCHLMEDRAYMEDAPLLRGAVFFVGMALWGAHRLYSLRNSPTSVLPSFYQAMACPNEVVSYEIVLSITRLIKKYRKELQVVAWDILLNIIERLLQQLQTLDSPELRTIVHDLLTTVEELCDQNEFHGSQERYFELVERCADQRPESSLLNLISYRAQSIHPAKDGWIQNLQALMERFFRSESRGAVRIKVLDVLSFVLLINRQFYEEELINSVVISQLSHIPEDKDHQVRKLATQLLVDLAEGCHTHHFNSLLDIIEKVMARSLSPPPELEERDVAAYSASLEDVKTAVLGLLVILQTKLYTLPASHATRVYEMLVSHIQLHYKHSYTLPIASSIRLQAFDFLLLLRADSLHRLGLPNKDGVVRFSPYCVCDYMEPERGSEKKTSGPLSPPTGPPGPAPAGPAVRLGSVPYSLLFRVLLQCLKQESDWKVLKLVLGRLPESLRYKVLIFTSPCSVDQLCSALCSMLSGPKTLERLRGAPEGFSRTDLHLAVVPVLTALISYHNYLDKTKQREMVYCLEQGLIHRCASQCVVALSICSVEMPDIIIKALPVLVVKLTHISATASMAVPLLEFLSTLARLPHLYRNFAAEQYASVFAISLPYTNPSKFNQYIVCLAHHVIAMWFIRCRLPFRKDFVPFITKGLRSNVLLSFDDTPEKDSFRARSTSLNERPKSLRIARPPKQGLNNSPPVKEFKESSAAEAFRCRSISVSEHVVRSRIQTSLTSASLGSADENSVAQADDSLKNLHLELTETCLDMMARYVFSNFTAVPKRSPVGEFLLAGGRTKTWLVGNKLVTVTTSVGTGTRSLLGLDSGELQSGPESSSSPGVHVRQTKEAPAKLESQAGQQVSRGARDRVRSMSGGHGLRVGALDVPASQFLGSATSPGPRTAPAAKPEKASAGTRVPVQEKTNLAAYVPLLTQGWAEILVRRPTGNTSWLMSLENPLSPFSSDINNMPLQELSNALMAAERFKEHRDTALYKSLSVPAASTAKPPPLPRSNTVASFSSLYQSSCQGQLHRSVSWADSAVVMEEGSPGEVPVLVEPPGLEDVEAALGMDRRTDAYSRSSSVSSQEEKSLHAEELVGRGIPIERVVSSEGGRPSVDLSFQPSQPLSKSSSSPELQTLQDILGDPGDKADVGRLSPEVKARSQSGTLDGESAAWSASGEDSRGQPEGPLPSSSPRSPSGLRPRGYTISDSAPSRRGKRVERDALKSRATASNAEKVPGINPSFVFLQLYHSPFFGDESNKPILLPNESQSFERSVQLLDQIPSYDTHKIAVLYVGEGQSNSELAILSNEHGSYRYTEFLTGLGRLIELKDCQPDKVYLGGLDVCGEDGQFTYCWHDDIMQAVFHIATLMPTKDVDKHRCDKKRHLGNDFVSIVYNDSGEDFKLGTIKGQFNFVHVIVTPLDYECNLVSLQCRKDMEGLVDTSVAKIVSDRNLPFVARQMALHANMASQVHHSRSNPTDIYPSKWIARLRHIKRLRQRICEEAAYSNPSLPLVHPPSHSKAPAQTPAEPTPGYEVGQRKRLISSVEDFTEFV
UniProt O60701, sequence (O60701 whole entry, looked up): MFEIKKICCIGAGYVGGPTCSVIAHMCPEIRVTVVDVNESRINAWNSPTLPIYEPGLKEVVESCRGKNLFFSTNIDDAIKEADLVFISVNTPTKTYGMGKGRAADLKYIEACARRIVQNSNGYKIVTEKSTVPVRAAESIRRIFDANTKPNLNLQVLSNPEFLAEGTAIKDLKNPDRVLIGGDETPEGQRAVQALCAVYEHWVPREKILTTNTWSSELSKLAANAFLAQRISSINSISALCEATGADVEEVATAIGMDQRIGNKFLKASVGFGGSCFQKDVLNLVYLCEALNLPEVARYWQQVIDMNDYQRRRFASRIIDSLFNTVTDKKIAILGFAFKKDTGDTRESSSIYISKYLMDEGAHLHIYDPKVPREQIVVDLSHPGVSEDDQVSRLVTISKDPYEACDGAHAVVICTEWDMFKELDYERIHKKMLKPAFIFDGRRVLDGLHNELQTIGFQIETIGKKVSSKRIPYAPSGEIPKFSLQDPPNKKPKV
UniProt P40818, sequence (P40818 whole entry, looked up): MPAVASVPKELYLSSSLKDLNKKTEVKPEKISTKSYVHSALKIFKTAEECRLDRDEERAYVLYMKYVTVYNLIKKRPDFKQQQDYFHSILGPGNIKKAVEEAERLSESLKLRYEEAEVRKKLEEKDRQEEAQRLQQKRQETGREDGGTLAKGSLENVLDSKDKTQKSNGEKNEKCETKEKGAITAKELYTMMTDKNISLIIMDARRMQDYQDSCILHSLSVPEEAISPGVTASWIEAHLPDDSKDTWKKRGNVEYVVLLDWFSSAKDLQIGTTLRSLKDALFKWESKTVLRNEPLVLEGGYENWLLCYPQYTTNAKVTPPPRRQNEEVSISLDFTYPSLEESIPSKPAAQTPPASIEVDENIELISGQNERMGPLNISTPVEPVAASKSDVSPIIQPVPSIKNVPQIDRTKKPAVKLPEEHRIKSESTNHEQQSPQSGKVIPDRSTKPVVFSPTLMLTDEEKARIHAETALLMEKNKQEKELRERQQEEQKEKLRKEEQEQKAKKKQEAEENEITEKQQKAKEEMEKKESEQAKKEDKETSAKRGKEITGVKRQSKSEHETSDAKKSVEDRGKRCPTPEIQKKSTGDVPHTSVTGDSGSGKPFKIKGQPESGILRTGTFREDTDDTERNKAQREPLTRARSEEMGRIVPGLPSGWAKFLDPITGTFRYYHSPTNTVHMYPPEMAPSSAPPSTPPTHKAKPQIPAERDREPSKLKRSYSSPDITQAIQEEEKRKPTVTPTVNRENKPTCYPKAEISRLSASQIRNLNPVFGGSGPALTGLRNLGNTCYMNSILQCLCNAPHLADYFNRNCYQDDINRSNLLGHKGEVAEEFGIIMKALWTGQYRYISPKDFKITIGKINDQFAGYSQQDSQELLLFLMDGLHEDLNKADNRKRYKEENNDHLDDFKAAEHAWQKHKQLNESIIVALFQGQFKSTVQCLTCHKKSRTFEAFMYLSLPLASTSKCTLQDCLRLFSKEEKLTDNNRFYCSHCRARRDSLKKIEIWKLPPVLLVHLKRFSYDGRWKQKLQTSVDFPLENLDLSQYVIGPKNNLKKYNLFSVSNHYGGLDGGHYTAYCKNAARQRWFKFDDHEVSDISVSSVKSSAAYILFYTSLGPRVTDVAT
UniProt Q96AX1, sequence (Q96AX1 whole entry, looked up): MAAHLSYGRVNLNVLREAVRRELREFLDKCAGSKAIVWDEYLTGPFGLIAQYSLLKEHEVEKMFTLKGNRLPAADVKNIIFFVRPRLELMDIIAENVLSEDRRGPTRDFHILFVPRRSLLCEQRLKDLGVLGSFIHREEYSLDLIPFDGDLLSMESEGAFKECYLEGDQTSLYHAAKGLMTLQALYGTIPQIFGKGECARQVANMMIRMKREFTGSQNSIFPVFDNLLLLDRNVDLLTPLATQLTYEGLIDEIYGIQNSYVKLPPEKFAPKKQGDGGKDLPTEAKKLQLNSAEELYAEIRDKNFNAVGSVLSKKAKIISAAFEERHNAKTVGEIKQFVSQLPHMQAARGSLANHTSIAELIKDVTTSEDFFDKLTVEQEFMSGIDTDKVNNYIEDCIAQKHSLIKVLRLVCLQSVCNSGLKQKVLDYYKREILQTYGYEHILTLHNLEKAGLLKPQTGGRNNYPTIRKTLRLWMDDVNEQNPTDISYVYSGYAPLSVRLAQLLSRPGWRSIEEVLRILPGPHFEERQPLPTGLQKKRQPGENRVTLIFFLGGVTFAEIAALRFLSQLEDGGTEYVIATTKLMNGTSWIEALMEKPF
UniProt Q16763, sequence (Q16763 whole entry, looked up): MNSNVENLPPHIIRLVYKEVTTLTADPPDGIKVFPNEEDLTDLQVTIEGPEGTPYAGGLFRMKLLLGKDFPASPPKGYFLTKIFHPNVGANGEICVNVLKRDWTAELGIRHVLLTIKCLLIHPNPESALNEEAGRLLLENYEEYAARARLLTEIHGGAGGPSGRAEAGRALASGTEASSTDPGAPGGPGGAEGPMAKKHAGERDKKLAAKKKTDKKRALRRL
UniProt Q6IBS0, sequence (Q6IBS0 whole entry, looked up): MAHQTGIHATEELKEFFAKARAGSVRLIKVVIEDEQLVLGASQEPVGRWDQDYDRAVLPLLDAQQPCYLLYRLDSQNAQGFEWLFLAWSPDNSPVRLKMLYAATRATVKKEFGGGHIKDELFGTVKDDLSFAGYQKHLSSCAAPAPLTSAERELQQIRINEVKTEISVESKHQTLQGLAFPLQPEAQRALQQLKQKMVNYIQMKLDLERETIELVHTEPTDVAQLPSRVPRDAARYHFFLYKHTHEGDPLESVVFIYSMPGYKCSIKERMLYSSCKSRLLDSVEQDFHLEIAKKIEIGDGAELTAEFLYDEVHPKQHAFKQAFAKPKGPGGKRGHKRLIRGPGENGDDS

Row | Target | probe-labelled cysteine peptide fold change (10 µM) | probe-labelled cysteine peptide fold change (50 µM)
1 | WDR82_Q6UXN9_153_PVCSFDPEGLIFAAGVNSEMVK (UniProt Q6UXN9) | -0.0208 | 0.122
2 | VPS33A_Q96AX1_416_LVCLQSVCNSGLK (UniProt Q96AX1) | 0.136 | 0.236
3 | USP8_P40818_962_CTLQDCLR (UniProt P40818) | 0.0281 | 0.116
4 | UNK_Q9C0B0_696_ASAAGAECELAR (UniProt Q9C0B0) | -0.00765 | -0.0535
5 | UHRF1BP1L_A0JNW5_647_SCDNFNLLHPIFQR (UniProt A0JNW5) | 0.0486 | -0.169
6 | WDR1_O75083_438_KCFSIDNPGYEPEVVAVHPGGDTVAIGGVDGNVR (UniProt O75083) | -0.415 | -0.364
7 | TUT7_Q5VYS8_1008_FLNILDQVCIQCYK (UniProt Q5VYS8) | 0.0777 | 0.138
8 | TWF2_Q6IBS0_67_AVLPLLDAQQPCYLLYR (UniProt Q6IBS0) | -0.0438 | 0.311
9 | UBA6_A0AVT1_455_ACIGDTLCQK | 0.0745 | 0.0509
10 | UGDH_O60701_27_ICCIGAGYVGGPTCSVIAHMCPEIR (UniProt O60701) | 0.0264 | -0.0868
11 | TTF1_Q15361_445_KTQACLASK (UniProt Q15361) | -0.0195 | -0.0681
12 | TUBGCP6_Q96RT7_640_DCAVYVGR (UniProt Q96RT7) | 0.0361 | 0.0424
13 | WDR74_Q6RFH5_201_LVTCTGYHQVR (UniProt Q6RFH5) | -0.0882 | -0.107
14 | VRK3_Q8IV63_244_LYSTPLLAIPTCMGFGVHQDK (UniProt Q8IV63) | -0.0261 | -0.132
15 | TSC2_P49815_414_CADQRPESSLLNLISYR (UniProt P49815) | 0.037 | 0.0711
16 | UBR7_Q8N806_155+158_RPYPDPEDEIPDEMIQCVVCEDWFHGR (UniProt Q8N806) | -0.0226 | -0.254
17 | UBE2S_Q16763_118_CLLIHPNPESALNEEAGR (UniProt Q16763) | 0.0159 | 0.149
18 | USP16_Q9Y5T5_631_EVFNTDECSIQHCLYQFTR (UniProt Q9Y5T5) | 0.0427 | -0.182
